Reference: article PMC13423814

Target: Coatomer subunit beta (UniProt P53618)
UniProt P53618, sequence (P53618 whole entry): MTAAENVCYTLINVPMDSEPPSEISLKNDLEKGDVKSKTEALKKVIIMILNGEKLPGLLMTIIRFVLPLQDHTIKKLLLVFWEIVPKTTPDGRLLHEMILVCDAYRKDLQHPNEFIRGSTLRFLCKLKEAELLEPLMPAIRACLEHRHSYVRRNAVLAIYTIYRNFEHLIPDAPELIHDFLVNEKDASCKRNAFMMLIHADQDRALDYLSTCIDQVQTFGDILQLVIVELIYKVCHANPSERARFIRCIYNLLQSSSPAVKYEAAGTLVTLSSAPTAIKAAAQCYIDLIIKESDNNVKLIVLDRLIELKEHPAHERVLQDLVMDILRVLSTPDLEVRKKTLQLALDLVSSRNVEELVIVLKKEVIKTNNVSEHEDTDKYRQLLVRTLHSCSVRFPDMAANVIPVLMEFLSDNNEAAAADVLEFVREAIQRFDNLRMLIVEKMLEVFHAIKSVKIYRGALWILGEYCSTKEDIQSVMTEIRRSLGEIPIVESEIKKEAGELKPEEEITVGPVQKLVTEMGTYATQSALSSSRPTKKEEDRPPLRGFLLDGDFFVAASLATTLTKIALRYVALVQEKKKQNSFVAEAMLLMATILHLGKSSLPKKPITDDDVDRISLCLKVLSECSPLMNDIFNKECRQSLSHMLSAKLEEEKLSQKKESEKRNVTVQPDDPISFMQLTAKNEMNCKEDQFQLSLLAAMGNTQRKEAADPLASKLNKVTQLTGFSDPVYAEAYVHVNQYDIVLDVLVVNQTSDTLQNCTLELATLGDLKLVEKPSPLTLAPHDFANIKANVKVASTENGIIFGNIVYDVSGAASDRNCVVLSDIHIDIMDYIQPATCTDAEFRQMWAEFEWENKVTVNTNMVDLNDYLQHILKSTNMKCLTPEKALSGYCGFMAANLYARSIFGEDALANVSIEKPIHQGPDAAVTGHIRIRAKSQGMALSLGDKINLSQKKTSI

Alpha-enolase, sequence (chain, as listed by the source): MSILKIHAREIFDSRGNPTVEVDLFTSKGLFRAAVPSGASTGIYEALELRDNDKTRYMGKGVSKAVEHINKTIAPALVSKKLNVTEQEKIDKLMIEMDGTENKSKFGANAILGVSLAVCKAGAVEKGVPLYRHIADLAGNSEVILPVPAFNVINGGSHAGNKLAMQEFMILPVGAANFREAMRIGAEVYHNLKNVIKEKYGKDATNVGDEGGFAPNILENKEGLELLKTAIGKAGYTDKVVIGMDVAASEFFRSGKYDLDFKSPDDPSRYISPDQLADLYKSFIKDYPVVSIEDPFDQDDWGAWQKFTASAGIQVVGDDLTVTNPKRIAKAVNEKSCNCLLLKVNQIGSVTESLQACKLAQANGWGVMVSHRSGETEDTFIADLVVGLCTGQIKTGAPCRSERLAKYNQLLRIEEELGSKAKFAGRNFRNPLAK

In the case of Alpha-enolase, the “listed as a hit” value is reported as “yes”.
